Experimental data as given in patent US20160083450A1, “HUMAN PROTEIN SCAFFOLD WITH CONTROLLED SERUM PHARMACOKINETICS” (THE REGENTS OF THE UNIVERSITY OF CALIFORNIA, priority 2009, published 2016).

B1: Db-DIII H464A: fusion protein of anti-CEA diabody and HSA DIII with H464 mutated to alanine (protein)
scFv-DIII 1: DIVLTQSPASLAVSLGQRATMSCRAGESVDIFGVGFLHWYQQKPGQPPKLLIYRASNLESGIPVRFSGTGSRTDFTLIIDPVEADDVATYYCQQTNEDPYTFGGGTKLEIKGGGSGGGGEVQLQQSGAELVEPGASVKLSCTASGFNIKDTYMHWVKQRPEQGLEWIGRIDPANGNSKYVPKFQGKATITADTSSNTAYLQLTSLTSEDTAVYYCAPFGYYVSDYAMAYWGQGTSVTVSSGSTSGSGKPGSGEGSTS[letters of about 200 residues with changes omitted]
scFv-DIII 2: DIVLTQSPASLAVSLGQRATMSCRAGESVDIFGVGFLHWYQQKPGQPPKLLIYRASNLESGIPVRFSGTGSRTDFTLIIDPVEADDVATYYCQQTNEDPYTFGGGTKLEIKGGGSGGGGEVQLQQSGAELVEPGASVKLSCTASGFNIKDTYMHWVKQRPEQGLEWIGRIDPANGNSKYVPKFQGKATITADTSSNTAYLQLTSLTSEDTAVYYCAPFGYYVSDYAMAYWGQGTSVTVSSGSTSGSGKPGSGEGSTS[letters of about 200 residues with changes omitted]
B2: Db-DIII H535A: fusion protein of anti-CEA diabody and HSA DIII with H535 mutated to alanine (protein)
scFv-DIII 1: DIVLTQSPASLAVSLGQRATMSCRAGESVDIFGVGFLHWYQQKPGQPPKLLIYRASNLESGIPVRFSGTGSRTDFTLIIDPVEADDVATYYCQQTNEDPYTFGGGTKLEIKGGGSGGGGEVQLQQSGAELVEPGASVKLSCTASGFNIKDTYMHWVKQRPEQGLEWIGRIDPANGNSKYVPKFQGKATITADTSSNTAYLQLTSLTSEDTAVYYCAPFGYYVSDYAMAYWGQGTSVTVSSGSTSGSGKPGSGEGSTS[letters of about 200 residues with changes omitted]
scFv-DIII 2: DIVLTQSPASLAVSLGQRATMSCRAGESVDIFGVGFLHWYQQKPGQPPKLLIYRASNLESGIPVRFSGTGSRTDFTLIIDPVEADDVATYYCQQTNEDPYTFGGGTKLEIKGGGSGGGGEVQLQQSGAELVEPGASVKLSCTASGFNIKDTYMHWVKQRPEQGLEWIGRIDPANGNSKYVPKFQGKATITADTSSNTAYLQLTSLTSEDTAVYYCAPFGYYVSDYAMAYWGQGTSVTVSSGSTSGSGKPGSGEGSTS[letters of about 200 residues with changes omitted]
B3: Db-DIII H510A: fusion protein of anti-CEA diabody and HSA DIII with H510 mutated to alanine (protein)
scFv-DIII 1: DIVLTQSPASLAVSLGQRATMSCRAGESVDIFGVGFLHWYQQKPGQPPKLLIYRASNLESGIPVRFSGTGSRTDFTLIIDPVEADDVATYYCQQTNEDPYTFGGGTKLEIKGGGSGGGGEVQLQQSGAELVEPGASVKLSCTASGFNIKDTYMHWVKQRPEQGLEWIGRIDPANGNSKYVPKFQGKATITADTSSNTAYLQLTSLTSEDTAVYYCAPFGYYVSDYAMAYWGQGTSVTVSSGSTSGSGKPGSGEGSTS[letters of about 200 residues with changes omitted]
scFv-DIII 2: DIVLTQSPASLAVSLGQRATMSCRAGESVDIFGVGFLHWYQQKPGQPPKLLIYRASNLESGIPVRFSGTGSRTDFTLIIDPVEADDVATYYCQQTNEDPYTFGGGTKLEIKGGGSGGGGEVQLQQSGAELVEPGASVKLSCTASGFNIKDTYMHWVKQRPEQGLEWIGRIDPANGNSKYVPKFQGKATITADTSSNTAYLQLTSLTSEDTAVYYCAPFGYYVSDYAMAYWGQGTSVTVSSGSTSGSGKPGSGEGSTS[letters of about 200 residues with changes omitted]

Tests used:
[1] = tested on: LS174T (CEA-positive) tumor; design: species or system athymic nude mice; conditions: mouse, in vivo
Procedure: Purified Db-DIII WT, H535A, H510A and H464A were radioiodinated with the positron emitter ^124I (sodium iodide in 0.02 M NaOH; IBA Molecular, Sterling, Va.) using the Iodogen method as previously described (Olafsen et al., 2006). Labeling reactions (0.114-0.130 ml) contained 0.1 mg purified protein and 12.9-18.0 MBq Na^124I. Labeling efficiency was measured by instant thin layer chromatography (ITLC) using the monoclonal antibody ITLC strips kit (Biodex Medical Systems, Shirly, N.Y.), as previously described (Olafsen et al., 2006).
(§1) For in vivo studies, 7 to 8 week old athymic nude mice (Charles River Laboratories, Wilmington, Mass.) were injected subcutaneously in the left shoulder region with 1-5×10^6 CEA-positive LS174T human colon carcinoma cells (American Type Culture Collection, Manassas, Va.) and in the right shoulder area with approximately the same number of CEA-negative C6 rat glioma cells (ATCC). Tumor masses were allowed to develop for an average of 10 days and reached a maximum of 200 mg weight. […] At five different time points (4 h, 20 h, 28 h, 44 h and 51 h), the injected mice were anesthetized using 2% isoflurane, placed on the bed, and imaged for 10 min. A 10 min CT scan was completed following the final PET scan at 51 h. All imaging experiments utilized the Focus 220 small animal PET (Siemens Preclinical Solutions, Knoxville, Tenn.) and the small animal CAT II (Concorde Microsystems, Knoxville, Tenn.) scanners. Following the last scan (51 h), mice were euthanized. Blood, tumors (LS174T and C6), liver, spleen, kidneys, lungs and carcass were collected, weighed, and counted in a Wallac WIZARD Automatic Gamma Counter (PerkinElmer Life and Analytical Sciences Inc., Wellesley, Mass.). After decay correction, the percent injected dose per gram (% ID/g) for each tissue/organ was calculated, incorporating a correction for the labeling efficiency of each protein and a standard error (SE).

[2] = tested on: LS174T (CEA-positive) tumor; assay: Serial small animal PET/CT imaging of 124I-labeled Db-DIII proteins and Db: tumor targeting, tumor-to-soft tissue ROI ratios; type: in vivo, athymic nude mice; conditions: for T:ST ROI ratio compared to the WT: 51 h; for Time at which tumor targeting was noted (as early as): PET images, LS174T tumor
Procedure: as §1
(§2) The same color threshold was applied to all images. Regions of interest (ROI; ellipsoid, 0.4 mm depth, n=4) were drawn in the area of the CEA-positive tumor and in a low-activity, soft tissue region of the lower body (muscle). Tumor-to-soft tissue (T:ST) ratios were determined for individual mice and averaged for each time point and construct. ROIs (n=4) were drawn over the heart on each image and % ID/g of blood was calculated by the AMIDE software after entering the injected dose in MBq and cylinder factor in MBq/cc/image units as input functions. The ADAPTII software package was used to calculate the mean residence time (MRT) of each protein from its blood activity curve (D′argenio and Schumitzky, 1979). SE was calculated for all ratios and % ID/g values, and expressed graphically (error bars). All T:ST ROI ratios and blood activity curves, respectively, were compared for significant difference using an unpaired Student t test. A 2-tailed P value of less than or equal to 0.05 was considered statistically significant.

[3] = design: species or system athymic nude mice; conditions: mouse, in vivo
Procedure: as §1, §2

Row | Molecule | Blood [1] | Carcass [1] | Kidneys [1] | Liver [1] | Lungs [1] | Spleen [1] | Radioactivity (% ID/g) remaining in blood, fold higher than that for the Db injected mice ([1]; 51 h) | T:ST ROI ratio compared to the WT [2] | Time at which tumor targeting was noted (as early as) [2] | Blood AUC [3] | First Mo (first moment) [3] | MRT (mean residence time) [3] | Blood clearance / persistence, statistical comparison of blood activity curves [3]
1 | B1 | 1.56 % ID/g | 0.28 % ID/g | 0.58 % ID/g | 0.44 % ID/g | 0.85 % ID/g | 0.50 % ID/g | 20 fold | significantly higher T:ST ratios compared to the WT | 4 h | 354 | 24 h | 17 h | 
2 | B2 | 2.04 % ID/g | 0.33 % ID/g | 0.75 % ID/g | 0.67 % ID/g | 0.91 % ID/g | 0.63 % ID/g |  | significantly higher T:ST ratios compared to the WT | 20 h | 470 | 66 h | 25 h | significantly longer blood persistence, compared to the H464A variant
3 | B3 | 1.77 % ID/g | 0.40 % ID/g | 0.53 % ID/g | 0.54 % ID/g | 0.98 % ID/g | 0.58 % ID/g |  | significantly higher T:ST ratios compared to the WT | 20 h | 528 | 38 h | 20 h | 
